{
  "source": "PubChem BioAssay AID686979",
  "about": "(National Center for Advancing Translational Sciences (NCATS), 2013)",
  "note": "Hit rate of the full screen: of about 420,000 compounds, about 50,000 (12%) were called active. This list was built around the results that the source calls inconclusive (neither active nor inactive); the mix of calls is not that of the screen. The call rests on the fitted dose curve; in most records, active means well fitted inhibition curve with a large enough effect; inconclusive means small, poorly fitted or top-dose-only effect; inactive means flat fitted curve, though single readings scatter. Potencies of inconclusive entries are left out as doubtful fits. On the % scale 0 is the no-effect control and ±100 the full control effect; potency means the concentration at half of the fitted maximal effect; tags describe the fitted curve by direction and shape.",
  "data": [
    {"assay": "qHTS for Inhibitors of human tyrosyl-DNA phosphodiesterase 1 (TDP1): qHTS in cells in presence of CPT; further: nearly all actives have a fitted effect of over 55% in size", "settings": "chicken DT40 Tdp1-/-;hTDP1 cells + 20 nM CPT, ATP luminescence, 48 h; activity change, negative = growth inhibition: at 46.2 µM (top of the series) unless noted", "summary_of_the_method": "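Chicken DT40 Tdp1-/- cells stably complemented with human TDP1 were seeded at 400 cells/well in medium containing 20 nM camptothecin, exposed to pin-transferred compounds, and grown at 37 °C for at least 48 hr. Viability was read as ATP luminescence.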", "values": [
      {"smiles": "O=C(Nc1ccccc1)c1cn2ccccc2n1", "Potency": "inconclusive [inhibitor, single point]"},
      {"smiles": "Cc1ccc(S(=O)(=O)CCC(=O)Nc2nnc(-c3ccc(F)cc3)o2)cc1", "Potency": "inconclusive [inhibitor, single point]"},
      {"smiles": "O=C(NCc1ccco1)c1ccc(Cn2c(=O)c3ccccc3n(Cc3ccc(Cl)cc3)c2=O)cc1", "Potency": "inconclusive [inhibitor, partial curve, poor fit]"},
      {"smiles": "CN1CCC(NC(=O)CCc2ccccc2)CC1", "Potency": "inactive"},
      {"smiles": "CCCN(C(=O)COC(=O)C12CCC(=O)N1c1ccccc1S2)c1c(N)n(Cc2ccccc2)c(=O)[nH]c1=O", "note": "(centres undefined)", "Potency": "inactive"},
      {"smiles": "O=C(CN1C2=NCCCN2c2ccccc21)c1ccc(Cl)cc1Cl", "Potency": "active: 20.6 µM"},
      {"smiles": "O=C(c1cccc(F)c1)N1C2C=CC(C2)C1(C(F)(F)F)C(F)(F)F", "note": "(centres undefined)", "Potency": "inactive"},
      {"smiles": "O=S(=O)(c1ccc(Cl)c(NC(=S)N/N=C/c2ccc(O)cc2)c1)N1CCOCC1", "Potency": "active: 4.11 µM"},
      {"smiles": "Cc1ccc(NC(=O)c2c(C)oc3ccc(O)c(CN4CCCCC4)c23)cc1", "Potency": "inconclusive [inhibitor, single point]"},
      {"smiles": "Cc1ccc(Cl)cc1NC(=O)c1cnn2c(C(F)F)cc(-c3ccccc3)nc12", "Potency": "inactive"},
      {"smiles": "O=C(NCc1nnc2n1CCN(Cc1ccc(C(F)(F)F)cc1)CC2)c1ccccn1", "activity change, negative = growth inhibition": "inactive: 3.09% [at 9.04 µM]"},
      {"smiles": "Cn1c(C(=O)N2CCCC(C(=O)NCCCSC3CCCCC3)C2)cc2sccc21", "note": "(centres undefined)", "Potency": "inconclusive [inhibitor, partial curve, poor fit]"},
      {"smiles": "CCOC(=O)C1C(=O)C=C(c2ccc(Br)cc2)CC1c1ccco1", "note": "(centres undefined)", "Potency": "inconclusive [inhibitor, single point]"},
      {"smiles": "COc1ccc(C(=O)COC(=O)c2ccc3c(c2)OCO3)c(OC)c1", "Potency": "inactive"},
      {"smiles": "CC(=O)N1CCN(C(=O)Nc2cccc(C(F)(F)F)c2)CC1", "Potency": "inactive"},
      {"smiles": "O=C(CSc1cccc[n+]1[O-])c1cc2ccccc2o1", "Potency": "active: 20.6 µM"},
      {"smiles": "COCCN1CCn2c(nc3cc(NC(=O)c4ccc(OC)cc4)ccc32)C1", "Potency": "active: 20.6 µM"},
      {"smiles": "COc1ccc(NC(=O)c2ccc3snnc3c2)cc1", "Potency": "inactive"},
      {"smiles": "Cc1cc(C)c(/C=C/c2onc(C)c2S(=O)(=O)N2CCC(C(=O)NCC(C)c3ccccc3)CC2)c(C)c1", "note": "(centres undefined)", "Potency": "active: 23.1 µM"},
      {"smiles": "CCOC(=O)c1c(-c2ccc(F)cc2)csc1NC(=O)CN1C(=O)NC2(CCCCC2C)C1=O", "note": "(centres undefined)", "Potency": "active: 20.6 µM"},
      {"smiles": "CCOC(=O)c1ccc2nc(NC(C)=O)sc2c1", "Potency": "inactive"},
      {"smiles": "CN(C)CCCNCCCNC(=O)/C(=N\\O)c1ccccn1", "Potency": "inconclusive [inhibitor, single point]"},
      {"smiles": "CCN(CC)c1ccc(S(=O)(=O)N2CCOCC2)cc1NC(=O)COC(=O)c1cccnc1SC", "Potency": "inconclusive [inhibitor, single point]"},
      {"smiles": "COc1ccc(/C=C/c2nc(C#N)c(NC3CCCCC3)o2)cc1OC", "Potency": "active: 20.6 µM"},
      {"smiles": "O=C(NC1CCCCC1)C(C1CC1)n1c(=O)c(-c2ccccc2)nc2ccccc21", "note": "(centres undefined)", "Potency": "inconclusive [inhibitor, single point]"},
      {"smiles": "Cc1cccc(C)c1N1C(=O)CC(N(O)c2ccccc2)C1=O", "note": "(centres undefined)", "Potency": "inactive"},
      {"smiles": "Cc1oc2c(O)c(O)ccc2c(=O)c1-c1ccccc1", "Potency": "inactive"},
      {"smiles": "CC(Nc1nc(-c2ccc3c(c2)NC(=O)CO3)cs1)c1ccccc1", "note": "(centres undefined)", "Potency": "active: 18.4 µM"},
      {"smiles": "COc1cc(OC)c(C2=NOC(C(=O)N3CCc4ccccc4C3)C2)cc1Cl", "note": "(centres undefined)", "Potency": "inconclusive [inhibitor, partial curve]"},
      {"smiles": "Cn1c(C(=O)N2CCN(Cc3ccc4c(c3)OCO4)CC2)cc2c(=O)n(C)c3ccccc3c21", "Potency": "inconclusive [inhibitor, single point]"},
      {"smiles": "O=S(=O)(c1ccc(Oc2ccc(Cl)cc2)c(S(=O)(=O)N2CCCCC2)c1)N1CCCCC1", "Potency": "inconclusive [inhibitor, single point]"},
      {"smiles": "COc1cc(C(C[N+](=O)[O-])c2c(N)n(C)c(=O)n(C)c2=O)ccc1O", "note": "(centres undefined)", "Potency": "active: 6.51 µM"},
      {"smiles": "COc1ccc(C(CNC(=O)c2cccc(S(=O)(=O)N3CCc4ccccc43)c2)N(C)C)cc1", "note": "(centres undefined)", "Potency": "inconclusive [inhibitor, single point]"},
      {"smiles": "Cc1c(C)n(C)c2ccc(C(=O)N3CCN(c4ccccn4)CC3)cc12", "Potency": "inconclusive [inhibitor, single point]"},
      {"smiles": "O=C(CCCC1=NS(=O)(=O)c2ccccc2N1)Nc1ccccc1", "Potency": "inactive"},
      {"smiles": "CN1CCN(C(=O)c2ccc(Oc3ccc([N+](=O)[O-])cc3)cc2)CC1", "Potency": "inactive"},
      {"smiles": "CCOc1ccc(S(=O)(=O)N(CC(=O)Nc2cc(C)on2)Cc2ccccc2Cl)cc1", "Potency": "inconclusive [inhibitor, single point]"},
      {"smiles": "CCc1cccc(C)c1Nc1c(-c2cccc(O)c2)nc2cnccn12", "Potency": "inconclusive [inhibitor, single point]"},
      {"smiles": "COC(=O)c1sc(SC)c(S(=O)(=O)C(C)C)c1N/N=C(\\C#N)C(=O)c1ccccc1", "Potency": "inconclusive [inhibitor, single point]"},
      {"smiles": "Cc1ccc(-c2cc(=O)c3cc(F)ccc3[nH]2)cc1", "Potency": "active: 23.1 µM"},
      {"smiles": "COCc1ccc(C(=O)N2CCOc3ccc(CN4CCN(c5ccc(F)cc5)CC4)cc3C2)o1", "Potency": "active: 20.6 µM"},
      {"smiles": "O=S(=O)(NC1CC2CCC1C2)c1ccc(Br)cc1", "note": "(centres undefined)", "Potency": "inactive"},
      {"smiles": "Cc1ccc(CNC(=O)CCc2c(C)nn(-c3ccc(N4CCCC4)nn3)c2C)cc1", "Potency": "inconclusive [inhibitor, partial curve]"},
      {"smiles": "CC(C)COc1cccc(-c2cc(C(=O)Nc3ccon3)c3ccccc3n2)c1", "Potency": "active: 16.4 µM"},
      {"smiles": "Cc1cc(N)n(-c2ccccn2)n1", "Potency": "inactive"},
      {"smiles": "Cc1ccc(NC(=O)c2cccc3cccnc23)cc1", "Potency": "inconclusive [inhibitor, single point]"},
      {"smiles": "CCOC(=O)C1=C(CN2CCN(c3ccccc3F)CC2)NC(=O)NC1c1ccc(OC)cc1", "note": "(centres undefined)", "Potency": "inconclusive [inhibitor, single point]"},
      {"smiles": "CCNC(=S)Nc1ccc(Cl)c(C(F)(F)F)c1", "Potency": "inactive"},
      {"smiles": "CCCCOc1ccc(C(=O)NCC(=O)N2CC(C)CC(C)C2)cc1", "note": "(centres undefined)", "Potency": "inconclusive [inhibitor, single point]"},
      {"smiles": "CC(C)(C)OC(=O)N(CCc1ccccc1)Cc1cccc(OCc2cccc(NC(=O)/C=C/c3ccccc3)c2)c1", "Potency": "inconclusive [inhibitor, partial curve]"},
      {"smiles": "O=S(=O)(Nc1nc2cc3c(cc2nc1Cl)OCCO3)c1ccccc1", "Potency": "inconclusive [inhibitor, single point]"},
      {"smiles": "CCN(CC)CCNC(=O)c1ccc(NC(=O)Cc2cccc3ccccc23)cc1", "Potency": "inactive"},
      {"smiles": "CCn1c(C)cc(C(=O)COC(=O)c2cccnc2SC)c1C", "Potency": "active: 16.4 µM"},
      {"smiles": "COc1ccccc1CNC(=O)Cn1c(-c2cccs2)cc2cc(F)ccc21", "Potency": "inconclusive [inhibitor, partial curve]"},
      {"smiles": "S=C(Nc1ccc(Oc2ccc(NC(=S)NC3CCCCC3)cc2)cc1)NC1CCCCC1", "Potency": "inconclusive [inhibitor, single point]"},
      {"smiles": "COc1ccc(-c2coc3cc(OC)ccc3c2=O)cc1", "Potency": "inconclusive [inhibitor, partial curve]"},
      {"smiles": "CC(CCc1ccccc1)NC(=O)COC(=O)c1cc(NS(=O)(=O)c2ccc(Cl)c([N+](=O)[O-])c2)ccc1O", "note": "(centres undefined)", "Potency": "inconclusive [inhibitor, single point]"},
      {"smiles": "CCCc1ccc2c(N)c(C#N)sc2n1", "Potency": "inconclusive [inhibitor, single point]"},
      {"smiles": "CCCn1c(=O)c(C(=O)NCc2ccccc2Cl)c(O)c2ccccc21", "Potency": "inconclusive [inhibitor, single point]"},
      {"smiles": "Cc1cc(C)nc(SCC(=O)Nc2ncc(Cc3cccc(Cl)c3)s2)n1", "Potency": "inconclusive [inhibitor, single point]"},
      {"smiles": "CCN(CC)S(=O)(=O)c1cc(NC(=O)Cn2ncc(Cl)c(Cl)c2=O)ccc1C", "Potency": "active: 3.66 µM"},
      {"smiles": "O=C(COC(=O)COc1cccc(Br)c1)NCc1ccc2c(c1)OCO2", "Potency": "inactive"},
      {"smiles": "Cn1c(-c2ccc(-c3ccccc3)cc2)c[nH]c1=S", "Potency": "active: 8.2 µM"},
      {"smiles": "N#CCc1ccnc2ccccc12", "activity change, negative = growth inhibition": "inconclusive: -33.2% [inhibitor]"},
      {"smiles": "Cc1cc(C)cc(Oc2nc(-c3ccccc3)cc(C)c2S(C)(=O)=O)c1", "Potency": "inconclusive [inhibitor, single point]"},
      {"smiles": "Cc1cc(C)cc(N(CCC(=O)Nc2nnc(C3CC3)s2)S(=O)(=O)c2ccc(Cl)cc2)c1", "Potency": "inconclusive [inhibitor, single point]"},
      {"smiles": "COc1cc2c(cc1OC)CN(C(=S)Nc1ccccc1)CC2", "Potency": "inactive"},
      {"smiles": "CCCOc1ccc(C(=O)Nc2ccc(N3CCN(C(=O)c4ccco4)CC3)cc2)cc1", "Potency": "inconclusive [inhibitor, partial curve]"},
      {"smiles": "COC(=O)C1CCN(c2ccc(C(N)=O)cc2[N+](=O)[O-])CC1", "Potency": "inconclusive [inhibitor, single point]"},
      {"smiles": "O=C(c1ccncc1)N1c2ccccc2Sc2ccccc21", "Potency": "active: 20.6 µM"},
      {"smiles": "O=C(CNc1cccc(S(=O)(=O)N2CCCC2)c1)Nc1cccc(F)c1", "Potency": "inactive"},
      {"smiles": "COCCN(CCOC)S(=O)(=O)c1ccc(C(=O)Nc2sc3c(c2C(N)=O)CCCCC3)cc1", "Potency": "inactive"},
      {"smiles": "COc1cccc(NC(=O)CCc2nc(-c3cc(OC)c(OC)c(OC)c3)no2)c1", "Potency": "active: 18.4 µM"},
      {"smiles": "O=C(N=Nc1c(O)[nH]c2ccc([N+](=O)[O-])cc12)c1ccccc1[N+](=O)[O-]", "Potency": "inconclusive [inhibitor, single point]"}
    ]}
  ]
}
